According to the supplement of paper PMC3334620:
Whole data set: some 33,000 sequences, median “E-score (-0.5 to 0.5)” near -0.012, cut for the highest 2% near 0.29. Some of the results follow.

Biological target: T1, Ybr033w (UniProt P38073)
T1 sequence: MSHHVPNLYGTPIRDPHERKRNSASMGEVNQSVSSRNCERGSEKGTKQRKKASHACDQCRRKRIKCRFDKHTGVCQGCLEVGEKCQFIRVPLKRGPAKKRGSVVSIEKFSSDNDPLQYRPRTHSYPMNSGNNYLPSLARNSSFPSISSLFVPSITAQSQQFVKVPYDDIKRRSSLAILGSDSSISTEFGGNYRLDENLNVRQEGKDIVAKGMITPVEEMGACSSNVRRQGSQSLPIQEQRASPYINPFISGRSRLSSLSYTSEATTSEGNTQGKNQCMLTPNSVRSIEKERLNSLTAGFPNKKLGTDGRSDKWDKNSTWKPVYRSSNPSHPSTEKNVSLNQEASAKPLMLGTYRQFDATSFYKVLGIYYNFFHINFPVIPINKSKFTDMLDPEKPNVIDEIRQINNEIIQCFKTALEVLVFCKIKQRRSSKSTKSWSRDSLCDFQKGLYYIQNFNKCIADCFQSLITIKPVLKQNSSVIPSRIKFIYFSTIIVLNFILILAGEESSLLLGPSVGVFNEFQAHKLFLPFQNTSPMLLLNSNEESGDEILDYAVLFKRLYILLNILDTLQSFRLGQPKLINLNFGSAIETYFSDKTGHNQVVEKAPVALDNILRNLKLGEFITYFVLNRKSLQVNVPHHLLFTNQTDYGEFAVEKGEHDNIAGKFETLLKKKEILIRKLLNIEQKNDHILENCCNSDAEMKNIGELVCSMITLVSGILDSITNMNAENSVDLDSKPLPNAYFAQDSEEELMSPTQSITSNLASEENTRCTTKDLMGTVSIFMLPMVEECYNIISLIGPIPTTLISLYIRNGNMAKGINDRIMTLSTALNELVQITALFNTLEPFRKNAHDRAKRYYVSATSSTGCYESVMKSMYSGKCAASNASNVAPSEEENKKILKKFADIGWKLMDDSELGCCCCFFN
Assay: PBM E-score (8-mer binding enrichment) (E-score (-0.5 to 0.5)); higher = stronger / more preferred TF binding; most listed sequences are background and not binding sites
Conditions: protein concentration: 200 nM; construct: GST-full length
Outline: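 GST-tagged yeast TFs (full-length or DNA-binding domain) were made by PURExpress in vitro transcription/translation and applied at about 100-200 nM to universal all-10-mer Agilent arrays. The arrays were made double-stranded by primer extension, on fresh or once-stripped slides. Bound protein was detected with fluorescent anti-GST, and scans were normalised with masliner. Each ungapped eight-base word, pooled with its reverse complement, received an E-score (modified Wilcoxon-Mann-Whitney statistic) from the Universal PBM Analysis Suite.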

Sequence	PBM E-score
CGGGACTA	-0.23
GAAGTGAC	-0.0703
CCACATGA	0.00689
CCCAATTA	0.074
CGAAGGGC	-0.194
ATGCTTCG	-0.0313
CGTGTGTC	-0.243
GCCAATTA	0.0522
ACGTTTAG	0.068
ACAGGATC	-0.103
CAGGACCG	-0.102
CGGGCTCC	-0.345
AAATGATC	0.328
CTACAGGA	0.16
CTTATCAC	-0.0454
GGATGCGA	-0.0739
ATTCCATC	0.237
ACCCTATA	-0.0436
AGGAAACT	0.113
AAAGATAA	0.299
CGGGCGGA	0.00224
GGCCTTAC	-0.186
ACCCGGAA	0.236
CAAAATTC	0.308
GTCTAGAA	0.129

Sequence	PBM E-score
TATTTAGA	0.24
CTGAAGGC	-0.256
CATCCCCG	-0.0676
ATGATAGC	0.248
AAGAATTA	0.23
AAAGCCCA	0.0491
GAAAGTCA	0.0267
AATGCACT	0.0697
CCATTGTA	0.17
TACAAGCA	0.189
TGCCGACA	-0.0146
CCCGAAAC	0.0496
ACGTATAT	0.156
ATCTGGTC	-0.00999
GACAAACA	0.116
TGATGCAA	0.081
GGGCTTCA	-0.312
CAAACGCG	0.162
ATAGTCAG	0.133
AACGCGAC	-0.159
ATTACCTC	0.0406
AATTAACG	0.233
GCGTTAGA	-0.0446
ATGCAAAG	0.187
CGACCTCG	-0.0938

Sequence	PBM E-score
ACAATAAT	0.341
CACTCCTG	-0.134
ACTGAAGC	0.117
TCACGAGA	-0.0537
GCACCAGA	-0.218
CCGCTTTC	-0.13
AGCCGCAA	-0.143
AGGAAGTG	0.0598
GTACGTGA	0.0204
GCGTCTTA	-0.0256
GGCTGAAC	-0.135
ATGAAATG	-0.0179
CCGACACC	-0.313
ACGACGTA	0.0878
GCGCAACA	-0.0911
CCGGTAAC	-0.112
AACTACCT	0.0764
ATACGGTG	0.043
ATCAACAA	0.257
ACGATGCC	-0.366
ATAAGTTG	0.119
CTAAAGCC	-0.09
ACTTGACG	-0.142
AAGGCCTA	-0.103
CTTTGCGA	-0.00836

Sequence	PBM E-score
ACCCTCTG	-0.127
CGTGTTAG	0.0687
GAAAGGTC	-0.163
GCATGTTA	0.111
CTAGTTTA	0.0146
CATTTACA	0.197
CGCGCTTA	0.094
AAAGTGGA	0.0854
ACTCATAT	0.141
AGGACGAG	-0.178
GGTTGATA	0.145
GAGAGGCC	-0.251
AATTGTGT	0.0367
TAGACAAA	0.0827
CCAGGCCA	-0.27
AATGTTCG	0.0248
CCGTCCCC	-0.424
ATCTCTAG	-0.0891
ATACTTTA	0.23
CTGCATAC	0.0438
CGGTACCC	-0.332
CCCAGCAG	-0.0407
CCGCATGC	-0.263
AACTGGCA	-0.0894
AACTCAAT	0.0866

Sequence	PBM E-score
GCGAATAC	-0.0873
AACAATGG	0.037
CAAGTTAA	0.068
TTCCCCAA	-0.178
ACTATACT	0.173
AAATAGCT	0.0379
GTGCGCTA	0.0193
CCCATTTC	-0.266
CACGCTTC	-0.392
CTGTTCAA	0.124
CTATCATA	0.099
AAACGACT	-0.0113
TATTTTGA	0.115
CAGCATCA	0.029
GCCATTTA	-0.0426
GCATGCCA	-0.156
ATGGGAAT	0.0234
TCGTCCAA	0.0311
CAAAGGCA	-0.0186
GGCCATTA	0.0667
CAGTTGGC	-0.113
ACGCGATA	-0.123
CACATACG	-0.14
CGTGTACC	-0.102
CGGTCTGA	-0.075

Sequence	PBM E-score
GTTGCCAA	0.00317
AATATCGG	0.198
AATCGCAG	0.0974
ACTATTAA	0.325
AGAAATGC	0.135
CGAGGAAC	0.041
ATTCTGGA	0.0822
AAGCAGCA	-0.0562
ATTAGTCA	0.153
AATTTCTA	0.209
GTGCCCCA	-0.254
AAACCCGG	0.0726
TCAGACAA	-0.101
GGGCGATA	-0.326
CAGATAAA	0.194
AAAATCAT	0.31
ATGTCCTG	0.0605
ACCTAGCT	-0.188
AATGGAGT	-0.00198
GATCTTTA	0.142
AGGTCTTC	-0.239
ATTGGATG	0.131
GACCACCA	-0.0711
AACTATAC	0.151
AACGTTAC	-0.0428

Sequence	PBM E-score
GAAGATCA	0.218
GCGATGCA	-0.301
ACCAAACC	0.062
GTCGCGAA	-0.0704
ACCGACAT	0.0515
CGAACAGA	-0.0434
AAGATCAC	-0.0901
GCCAGGTA	-0.171
CCAGGCTC	-0.152
TATCCGAA	0.264
CCGGGTTC	-0.0329
GAGAGCCA	-0.251
CGAGGATC	0.0125
AAGGGCTA	-0.0643
CCTGGGAG	-0.201
GGGTGACC	-0.17
CAAAACAA	0.0338
GACATTCC	-0.0632
CACTCATG	0.0247
ACGCACAG	0.0777
CTTGCACC	-0.109
CCGCCCAC	-0.0778
AGGCGCTA	-0.0272
AGGCTAAA	0.101
CACCGTTA	-0.0335

Sequence	PBM E-score
GGCGACAC	-0.146
CGTCTCGA	0.105
AAGGATCC	-0.0384
AATGATTA	0.251
AAATATTG	0.274
GTCTATGA	0.0614
CCGGCAAG	-0.061
AGTTCATC	0.238
GGCGGGTA	-0.268
AAGGATGT	0.135
ACGGCAGG	-0.238
GTATATGA	0.233
ATTTACTA	0.269
ATTTTTCG	0.18
GGGTTCAA	0.0202
CCGGATAA	0.454
GTTGGAGA	0.0621
CTCTCCCA	-0.196
GTTGTGAA	0.123
CTATTGTC	0.02
ACGGGAAT	0.0676
GATGGAAA	-0.0152
TCCTCTCA	0.0168
ACCAAGTA	0.13
GTTACTAA	0.134

Sequence	PBM E-score
CTGTTCGC	-0.0349
CTGGGGTA	-0.116
GCCCACCC	-0.168
GTCGGGTA	0.0573
GGGTCTAA	-0.0545
CTTAGATA	0.138
ATACCGTA	0.0449
AATCGCCT	0.173
ATGGCCAT	-0.0509
AACGCTCG	-0.0603
CCAAACTC	0.11
CGACCTAC	-0.288
ACCCGCGC	0.168
GATGGGGC	-0.24
GGCCTACA	-0.0971
CGGGGAAC	0.0127
AAAATCGC	0.186
CCGTACAG	-0.115
ACCGTAGT	-0.0649
TGTGTAAA	0.231
CAATCACA	0.0651
AAACCCAA	0.269
ATGAATTC	0.19
AACAATCA	0.279
ATCATAGG	-0.0728

Sequence	PBM E-score
ACCCGAAG	-0.0833
CACTTTCC	-0.155
GCGTTAGC	-0.0265
GGGTGCGA	-0.231
AGGTGTCA	0.0718
TGTTCAAA	0.147
CCGAAAAA	0.219
AAAAATCA	0.24
GTTCAGGA	0.0149
CCATACAA	0.0328
CAAATTAC	0.161
GAGACGAC	-0.038
CTTAGGAA	0.13
AGAGTAAC	0.0237
ACGATAGG	-0.0592
TCAACTAA	0.173
GACGTTAA	0.0676
AACTTAGG	0.0738
GTCTGGCA	-0.00403
CAGGATAC	-0.182
AATCATAT	0.126
TAGGGAAA	-0.00431
CTGTGTAA	0.138
GTGACAAC	0.151
AAGCCTCC	-0.111

Sequence	PBM E-score
CTTTCATA	0.252
GAGATGAA	-0.116
AAAATAGG	0.19
CCGGCGCC	-0.127
GCTAGAGA	0.0592
ACGGTTCG	-0.164
CGACTCTC	-0.164
GAAAGACC	-0.187
CTTGATTA	0.168
ATAGAGTG	0.0526
GGTGGACA	-0.156
AAATTCGG	0.257
CTATATCA	0.248
AAAATGTA	0.207
ACGTTCGA	-0.0218
AGATGAAC	0.131
ATGACCAG	0.00781
GGTTGCGA	0.0313
CGGGGTTA	-0.0771
ATAGCAAT	0.146
AATGTTGC	0.0212
AAGTTGCG	0.095
CAGGCACG	-0.2
CCCGCTCC	-0.352
AAGGCCGC	0.00241

Sequence	PBM E-score
AGATTGGC	-0.0966
AGAGCAGG	0.0576
TATCGAGA	0.136
ACAAGACT	-0.087
CCCAGGGG	-0.27
GGTAGCCA	-0.234
AAAATCTC	0.138
CTTCGAGC	-0.158
GCCAAGAC	-0.082
CTGACCAC	-0.1
ATTCGCCA	-0.0296
AGGCCTCC	-0.329
GGATTCAC	-0.157
ATTGGCTG	-0.111
TATTGTAA	0.167
TCACCTCA	0.0189
CGGCTCAA	0.103
AGCCCTAG	-0.0824
GCTAACCA	-0.0185
CGTGATGA	-0.0784
CATTAAAA	0.319
ATGCTAAT	0.226
AAGTCGCT	-0.0995
GGAGGCCC	-0.319
CGCCGGGC	-0.226

Sequence	PBM E-score
GAGCTTAC	0.0325
ATGTACAC	0.0657
CCCGGGGC	-0.191
CCCTGACG	-0.138
CACGCGGA	-0.091
GAACCATC	0.083
GACCAAAA	0.27
GCGGATAA	0.416
AACTCAGT	0.0757
TACACAAA	0.204
CCGCCAAA	0.0792
AACTACAC	0.134
CCACCCAG	-0.15
AATAGCTA	0.0993
GATAGTCA	-0.0395
GTATGGAA	0.085
CCTGTGAA	0.0953
GCTCTTAA	0.0193
GGGGTAGA	-0.0421
AAAGCATA	0.0585
ATCTATAA	0.197
CAGGTACA	-0.0554
CATATTCC	0.0424
GGGCTCCA	-0.334
TATTGCAA	0.246

Sequence	PBM E-score
CGCAAAAG	-0.0343
CGTACCTA	-0.114
CATATCCC	0.101
CGACTCAC	-0.144
AGGGGAAT	0.0254
GGAAGCAC	-0.063
CTTAGAGA	-0.0853
CTAGAGAA	0.137
AAGCAAGG	-0.0139
AACCTCAG	0.0743
TACCAGGA	0.0574
TAAAGTCA	0.117
ATGTAGCA	0.0511
CAAGGCCC	-0.129
AGAATCGG	-0.0802
ACTATATG	0.256
TTAGTGAA	0.14
CAAAAGAC	0.0582
GATGCCCA	-0.0455
